# Data taken from PubChem BioAssay AID938 (National Center for Advancing Translational Sciences (NCATS), 2007).
# “And” between values parts separate entries of the source, which are not always exact repeats. Identical values can stand only once. About 1,800 (2.5%) of roughly 73,000 compounds were called active. The inconclusive results got no clear call from the source; some entries with a clear call stand among them for comparison. The call rests on the fitted dose curve; in most records, active means well fitted activation curve with a large enough effect; inconclusive means small, poorly fitted or top-dose-only effect; inactive means no such curve, though single readings can be large or run the other way. Potencies beside an inconclusive call are fits to weak or partial responses and may not hold up.
# Assay: qHTS Assay for Agonists of the Thyroid Stimulating Hormone Receptor: Activators of Intracellular cAMP Concentrations in Parental HEK 293; further: nearly all actives have a fitted effect of over 55% in size; on activation: % of control where 0% means no effect
# Conditions: parental HEK293 CNG cAMP sensor, membrane potential fluorescence; activation: at 57.1 µM (top of the series) unless noted
# Method in brief: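 Counterscreen for endogenous-receptor signalling: CNG-channel HEK 293 cells report cAMP rise by membrane depolarization. After 60 min dye equilibration with 100 uM RO 20-1724, compounds incubated 30 min before bottom-read fluorescence at 590 nm.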
# Potency means the concentration at half of the fitted maximal effect; tags describe the fitted curve by direction and shape.
Compound,Potency,activation
Cc1[nH]nc2c1C1(CCC3(CC1)OCCO3)C(C#N)=C(N)O2,inactive,–
Oc1ccc(Cl)cc1Cc1cc(Cl)ccc1O,inactive,–
O=C(CCNS(=O)(=O)c1ccccc1F)NCc1ccc2c(c1)OCO2,"inconclusive: 6.31 µM [activator, single point]",–
COC(=O)c1ccc(CN(Cc2ccc(C(=O)OC)o2)C(C)(C)C)o1,"inconclusive: 20 µM [activator, single point]",–
COC(=O)CNC(=O)C1(CC(C)C)C=CCN1C(C)=O (stereo unspecified),inactive,–
CCCCn1c(=N)n(CC(O)COc2cccc(C)c2)c2ccccc21 (stereo unspecified),"inconclusive: 7.94 µM [activator, partial curve]",–
COc1ccc(Cc2nc(-c3cccs3)no2)cc1OC,"inconclusive: 25.1 µM [activator, single point]",–
O=C(c1csnn1)N1CCC2(CCN(Cc3nccs3)CC2)CC1,"inconclusive: 3.98 µM [activator, single point]",–
COC(=O)c1ccc(C(NC(=O)OCc2ccccc2)/C(I)=C/[C@@H](C)C(=O)Nc2ccccc2)cc1 (stereo partly specified),inactive,–
Cc1cc(NC(=O)c2ccc(COc3ccc(Cl)c(C)c3)o2)no1,"inconclusive: 6.31 µM [activator, single point]",–
Cc1c(Br)cc(C(=O)NCc2ccco2)c(C)c1C,"inconclusive: 6.31 µM [activator, single point]",–
CC(C)N(CCNC(=O)C1CCC(=O)N1Cc1ccc(F)cc1)Cc1ccccc1 (stereo unspecified),"inconclusive: 15.8 µM [activator, partial curve]",–
Cc1cc(Nc2nc3ccccc3[nH]c2=O)n(-c2ccccc2)n1,"inconclusive: 0.126 µM [activator, full curve, poor fit]",–
O=C(CCSc1nc(-c2ccco2)cc(C(F)(F)F)n1)NCCc1ccccc1,"inconclusive: 6.31 µM [activator, full curve]",–
CCC(c1nnnn1Cc1ccc2c(c1)OCO2)N1CCN(c2ccc(OC)cc2)CC1 (stereo unspecified),"inconclusive: 20 µM [activator, partial curve]",–
Cc1ccc(OCCn2c(CCCO)nc3ccccc32)cc1,"inconclusive: 31.6 µM [activator, single point]",–
O=C(Nc1nc2c(s1)CCCC2)C1COc2ccccc2O1 (stereo unspecified),"inconclusive: 6.31 µM [activator, single point]",–
Cc1ccc(C(c2sc3ncnn3c2O)N2CC(C)CC(C)C2)cc1 (stereo unspecified),"inconclusive: 0.158 µM [activator, single point]",–
COC(=O)CSc1ncc(C#N)c(N)n1,inactive,–
Cc1cccc(-n2c(SCC(=O)NCc3ccco3)nc3ccccc3c2=O)c1,"inconclusive: 25.1 µM [activator, partial curve]",–
Cn1c(C(=O)N(Cc2ccccc2)Cc2ccccn2)cc2sccc21,active: 15.8 µM,–
COc1c2c(c3c(c1CCC(=O)O)OC(C)(C)C=C3)OC(C)(C)C=C2,–,inactive: -6.01% [at 11.4 µM]
OC(CN1C2=NCCCN2c2ccccc21)c1ccc(Cl)cc1 (stereo unspecified),"inconclusive: 7.94 µM [activator, single point]",–
COCCN1Cc2cccc(C(=O)NCc3ccc4c(c3)OCO4)c2C1=O,"inconclusive: 39.8 µM [activator, single point]",–

Compound,Potency,activation
CC(=O)N1CCC2(CC1)CCN(C(=O)Nc1cccc(C#N)c1)CC2,inactive,–
Cc1cc(C2CCCCC2)n(O)c(=O)c1,–,inconclusive: 30.8% [activator] [at 25.6 µM]
O=C(Nc1ccc(Cl)cc1)N1CCC(c2nc(-c3ccc(F)cc3)no2)CC1,"inconclusive: 10 µM [activator, partial curve]",–
COc1ccc(-c2cn3c(C)c(C(=O)Nc4cccc(C)n4)sc3n2)cc1,inactive,–
COc1ccccc1N1CCN(S(=O)(=O)Cc2ccccc2Cl)CC1,"inconclusive: 3.16 µM [activator, single point]",–
O=C(O)CNCC1COc2ccccc2O1 (stereo unspecified),inactive,–
COc1ccc2[nH]cc(CCNc3ccnc(-c4cccc(NS(C)(=O)=O)c4)n3)c2c1,inactive,–
CCC/C(O)=C1\C(=O)CC(C)(C)CC1=Nc1ccccc1OC,"inconclusive: 15.8 µM [activator, partial curve]",–
CCOC(=O)N1CCN(S(=O)(=O)c2ccc(C)cc2)C1c1ccccc1 (stereo unspecified),active: 12.6 µM,–
CCO,"inconclusive: 0.0316 µM [activator, full curve, poor fit]",–
CCc1c(C)c2ccc(OCC(=O)N(C)C)c(C)c2oc1=O,inactive,–
Cc1ccnc(NC(=O)C2CCN(S(=O)(=O)c3cccc4nsnc34)CC2)c1,inactive,–
COc1ccc(Cc2nn3c(-c4ccccc4Br)nnc3s2)cc1,"inconclusive: 2 µM [activator, partial curve]",–
COc1ccccc1C1SCCN1S(=O)(=O)c1cccc(C(F)(F)F)c1 (stereo unspecified),"inconclusive: 39.8 µM [activator, single point]",–
Cc1nn(-c2ccccc2)c2c1C(c1cccnc1)N1C=C(S(=O)(=O)N3CCCCC3)C=CC1=N2 (stereo unspecified),"inconclusive: 3.16 µM [activator, single point]",–
O=C(CCn1cccc1)NCCc1ccc(Cl)cc1,"inconclusive: 39.8 µM [activator, single point]",–
COc1cccc(N2CCN(C3CCCC(C)C3)CC2)c1 (stereo unspecified),"inconclusive: 25.1 µM [activator, single point]",–
COC(=O)[C@@]1(Cc2ccc(F)cc2)[C@H]2c3cc(C(=O)N4CCCC4)n(CCN4CNCC4=O)c3C[C@H]2CN1C(=O)c1ccccc1,inactive,–
O=C(O)c1ccccc1NS(=O)(=O)c1cccc2cccnc12,inactive,–
CCCCn1ccc(=O)c2c(C(F)(F)F)nccc21,"inconclusive: 6.31 µM [activator, single point]",–
N=c1c(C(=O)NCc2ccco2)cc2c(=O)n3ccccc3nc2n1Cc1ccc(Cl)cc1,inactive,–
CCCOCCOC(=O)c1[nH]c2c(c1C)C(=O)CC(c1cc(OC)ccc1OC)C2 (stereo unspecified),"inconclusive: 3.16 µM [activator, full curve]",–
C=CCOc1ccc(/C=C/C(C)=N\O)cc1,inactive,–
c1ccc(Cc2nnc3sc(-c4cccs4)nn23)cc1,inactive,–

Compound,Potency,activation
Cc1n[nH]c(C)c1S(=O)(=O)N1CCCC(C(=O)NC2CCCCC2)C1 (stereo unspecified),active: 10 µM,–
O=C(CCCC(=O)N(CC(=O)NC1CCCCC1)Cc1ccco1)Nc1ccccn1,"inconclusive: 25.1 µM [activator, single point]",–
Cn1c(SCc2c(Cl)cccc2Cl)nnc1-c1cccs1,active: 12.6 µM,–
Cc1occc1-c1nnc(SCC(=O)N2CCCc3ccccc32)n1Cc1ccco1,"inconclusive: 10 µM [activator, partial curve]",–
COC(=O)C1=C(C)N(Cc2ccccc2)C2=C(C(=O)c3ccccc3)C(c3ccccc3)[C@@](O)(C(=O)OC)C(=O)N2C1c1ccccc1 (stereo partly specified),–,inactive: 17.1% [at 11.4 µM] and inactive: 1.76% [at 11.4 µM]
N#Cc1cccc(-c2cncnc2NCCc2cnc[nH]2)c1,"inconclusive: 3.98 µM [activator, partial curve]",–
Cc1ccc(C(=O)NCCNC(=O)CN2CCOCC2)cc1,"inconclusive: 31.6 µM [activator, single point]",–
CC(=O)N1[C@H](Cc2ccccc2)C=C[C@]1(C)C(=O)O,inactive,–
CCOC(=O)c1sc2ncnc(NCC(c3cccs3)N(C)C)c2c1C (stereo unspecified),"inconclusive: 25.1 µM [activator, single point]",–
CN(C)c1ncc2nc(CCc3ccccc3)c(=O)n(C3CC3)c2n1,"inconclusive: 5.01 µM [activator, partial curve]",–
COc1ccc(NC(=O)c2c(-c3ccccc3Cl)noc2C)c(OC)c1,"inconclusive: 15.8 µM [activator, partial curve]",–
O=C(/C=C\C=C/c1ccc2c(c1)OCO2)N1CCCCC1,"inconclusive: 10 µM [activator, partial curve, poor fit]",–
CC(C)(C)n1nnnc1C(c1cccs1)N(Cc1cccnc1)CC1CCCO1 (stereo unspecified),"inconclusive: 6.31 µM [activator, partial curve]",–
CCC(=O)N1CCN(c2ccccc2NC(=O)COc2cccc(C)c2)CC1,active: 20 µM,–
Cn1c(=O)c(-c2cccs2)nc2cnc(Oc3ccccc3)nc21,inactive,–
O=C(C1CCC(C(=O)N2CCc3ccccc32)CC1)N1CCc2ccccc21 (stereo unspecified),"inconclusive: 39.8 µM [activator, single point]",–
COc1ccc(Oc2ccc(S(=O)(=O)N3CCCCC3)cc2S(=O)(=O)N2CCCCC2)cc1,"inconclusive: 0.794 µM [activator, single point]",–
COc1ccc(-n2c(=O)c3c4c(sc3n3c(C)nnc23)COC(C(C)C)C4)cc1 (stereo unspecified),"inconclusive: 7.94 µM [activator, single point]",–
N[C@@H](CSCc1ccc(I)cc1)C(=O)O,"inconclusive: 7.94 µM [activator, single point]",–
CCC(C)(C)NC(=O)C(c1cccs1)N(CC1CCCO1)C(=O)Cn1nnc2ccccc21 (stereo unspecified),"inconclusive: 7.94 µM [activator, partial curve]",–
CCCCn1c(SCc2c(C)noc2C)nc2cc(S(N)(=O)=O)ccc21,"inconclusive: 15.8 µM [activator, partial curve]",–
O=C(CCN(CCO)Cc1ccccc1)Nc1ccc(Br)cc1,"inconclusive: 6.31 µM [activator, single point]",–
COc1ccc(C(=O)N2CCC[C@@]3(CCN(Cc4ccc(C#N)cc4)C3)C2)cc1,"inconclusive: 15.8 µM [activator, partial curve]",–
